According to patent publication US11000038B2, “Pyridone compounds and agricultural and horticultural fungicides containing the same as active ingredients” (priority 2017, dated 2021):

Columns and labels:
[1] = tested on: wheat brown rust fungi (Puccinia recondita); experiment: Test Example E: wheat brown rust, spray treatment of wheat plants; type: in vivo; details: spray treatment of wheat plants; control value=100{1-(n/3)}
[2] = tested on: barley powdery mildew fungi (Blumeria graminis f. sp. hordei); experiment: Test Example D: barley powdery mildew, spray treatment of barley plants; details: spray treatment of barley plants; control value=100{1-(n/3)}
[3] = tested on: cabbage Alternaria sooty spot fungi (Alternaia brassicicola); experiment: Test Example C: cabbage Alternaria sooty spot, spray treatment of cabbage plants; type: in vivo; details: spray treatment of cabbage plants; control value=100{1-(n/3)}
From the text: [Test Example C] Cabbage Alternaria Sooty Spot
Test plants (cabbage variety: Shikidori) were cultivated until the cotyledons extended after the sowing of seeds.
<Control Value> Control value=100{1−(n/3)}

[4] = tested on: gray mold fungi (Botrytis cinerea); experiment: Test Example B: tomato gray mold, spray treatment of tomato plants; details: spray treatment of tomato plants; control value=100{1-(n/3)}
[5] = tested on: grape downy mildew fungus (Plasmopara viticola); experiment: Test Example G: grape downy mildew, spray treatment of grape plants; details: 250 ppm spray, 2.5 ml/pot, grape Neomuscat; 7 to 10 days from inoculation

SMILES: O=c1c(Cl)cn(-c2cccnc2Cl)c(-c2c(F)cc(F)cc2F)c1Br [Compound 34]
- Test E control value class (wheat brown rust) [1]: H (H shows the control value of more than 50%)
- Test D control value class (barley powdery mildew) [2]: H (H shows the control value of more than 50%)
- Test C control value class (cabbage Alternaria sooty spot) [3]: H (H shows the control value of more than 50%)
- Test B control value class (tomato gray mold) [4]: H (H shows the control value of more than 50%)
- Test G control value class (grape downy mildew) [5]: H (H shows the control value of more than 50%)

SMILES: O=c1c(Cl)cn(-c2cccnc2Cl)c(-c2c(F)cc(F)cc2F)c1Cl [Compound 35]
- Test E control value class (wheat brown rust) [1]: H (H shows the control value of more than 50%)
- Test D control value class (barley powdery mildew) [2]: H (H shows the control value of more than 50%)
- Test C control value class (cabbage Alternaria sooty spot) [3]: H (H shows the control value of more than 50%)
- Test B control value class (tomato gray mold) [4]: H (H shows the control value of more than 50%)
- Test G control value class (grape downy mildew) [5]: H (H shows the control value of more than 50%)

SMILES: O=c1c(Br)cn(-c2cccnc2Cl)c(-c2c(F)cc(F)cc2F)c1Cl [Compound 36]
- Test E control value class (wheat brown rust) [1]: H (H shows the control value of more than 50%)
- Test D control value class (barley powdery mildew) [2]: H (H shows the control value of more than 50%)
- Test C control value class (cabbage Alternaria sooty spot) [3]: H (H shows the control value of more than 50%)
- Test B control value class (tomato gray mold) [4]: H (H shows the control value of more than 50%)
- Test G control value class (grape downy mildew) [5]: H (H shows the control value of more than 50%)

SMILES: COc1cc(F)c(-c2c(Br)c(=O)c(Cl)cn2-c2cccnc2OC)c(F)c1 [Compound 39]
- Test E control value class (wheat brown rust) [1]: H (H shows the control value of more than 50%)
- Test D control value class (barley powdery mildew) [2]: H (H shows the control value of more than 50%)
- Test C control value class (cabbage Alternaria sooty spot) [3]: H (H shows the control value of more than 50%)
- Test B control value class (tomato gray mold) [4]: H (H shows the control value of more than 50%)
- Test G control value class (grape downy mildew) [5]: H (H shows the control value of more than 50%)

SMILES: CC(C)C(C)n1cc(Cl)c(=O)c(Br)c1-c1c(F)cc(F)cc1F (stereo not shown) [Compound 42]
- Test E control value class (wheat brown rust) [1]: H (H shows the control value of more than 50%)
- Test D control value class (barley powdery mildew) [2]: H (H shows the control value of more than 50%)
- Test C control value class (cabbage Alternaria sooty spot) [3]: H (H shows the control value of more than 50%)
- Test B control value class (tomato gray mold) [4]: H (H shows the control value of more than 50%)
- Test G control value class (grape downy mildew) [5]: H (H shows the control value of more than 50%)

SMILES: O=c1c(Br)cn(-c2ccccc2Br)c(-c2c(F)cc(F)cc2F)c1Br [Compound 44]
- Test E control value class (wheat brown rust) [1]: H (H shows the control value of more than 50%)
- Test D control value class (barley powdery mildew) [2]: H (H shows the control value of more than 50%)
- Test C control value class (cabbage Alternaria sooty spot) [3]: H (H shows the control value of more than 50%)
- Test B control value class (tomato gray mold) [4]: H (H shows the control value of more than 50%)
- Test G control value class (grape downy mildew) [5]: L (L shows the control value of 50% or less)

SMILES: O=c1c(Cl)cn(-c2ccccc2Br)c(-c2c(F)cc(F)cc2F)c1Br [Compound 46]
- Test E control value class (wheat brown rust) [1]: H (H shows the control value of more than 50%)
- Test D control value class (barley powdery mildew) [2]: H (H shows the control value of more than 50%)
- Test C control value class (cabbage Alternaria sooty spot) [3]: H (H shows the control value of more than 50%)
- Test B control value class (tomato gray mold) [4]: H (H shows the control value of more than 50%)
- Test G control value class (grape downy mildew) [5]: H (H shows the control value of more than 50%)

SMILES: CC(C)C(C)n1cc(Br)c(=O)c(Br)c1-c1c(F)cc(F)cc1F (stereo not shown) [Compound 47]
- Test E control value class (wheat brown rust) [1]: H (H shows the control value of more than 50%)
- Test D control value class (barley powdery mildew) [2]: H (H shows the control value of more than 50%)
- Test C control value class (cabbage Alternaria sooty spot) [3]: H (H shows the control value of more than 50%)
- Test B control value class (tomato gray mold) [4]: H (H shows the control value of more than 50%)
- Test G control value class (grape downy mildew) [5]: L (L shows the control value of 50% or less)

SMILES: COc1cc(F)c(-c2c(Br)c(=O)c(Cl)cn2C(C)C(C)C)c(F)c1 (stereo not shown) [Compound 50]
- Test E control value class (wheat brown rust) [1]: H (H shows the control value of more than 50%)
- Test D control value class (barley powdery mildew) [2]: H (H shows the control value of more than 50%)
- Test C control value class (cabbage Alternaria sooty spot) [3]: H (H shows the control value of more than 50%)
- Test B control value class (tomato gray mold) [4]: H (H shows the control value of more than 50%)
- Test G control value class (grape downy mildew) [5]: H (H shows the control value of more than 50%)

SMILES: COc1cc(F)c(-c2c(Cl)c(=O)c(Br)cn2C(C)C(C)C)c(F)c1 (stereo not shown) [Compound 51]
- Test E control value class (wheat brown rust) [1]: H (H shows the control value of more than 50%)
- Test D control value class (barley powdery mildew) [2]: H (H shows the control value of more than 50%)
- Test C control value class (cabbage Alternaria sooty spot) [3]: H (H shows the control value of more than 50%)
- Test B control value class (tomato gray mold) [4]: H (H shows the control value of more than 50%)
- Test G control value class (grape downy mildew) [5]: L (L shows the control value of 50% or less)

SMILES: COc1cc(F)c(-c2c(Cl)c(=O)c(Cl)cn2C(C)C(C)C)c(F)c1 (stereo not shown) [Compound 52]
- Test E control value class (wheat brown rust) [1]: H (H shows the control value of more than 50%)
- Test D control value class (barley powdery mildew) [2]: H (H shows the control value of more than 50%)
- Test C control value class (cabbage Alternaria sooty spot) [3]: H (H shows the control value of more than 50%)
- Test B control value class (tomato gray mold) [4]: H (H shows the control value of more than 50%)
- Test G control value class (grape downy mildew) [5]: L (L shows the control value of 50% or less)

SMILES: COc1cc(F)c(-c2c(Br)c(=O)c(Br)cn2C(C)C(C)C)c(F)c1 (stereo not shown) [Compound 53]
- Test E control value class (wheat brown rust) [1]: H (H shows the control value of more than 50%)
- Test D control value class (barley powdery mildew) [2]: L (L shows the control value of 50% or less)
- Test C control value class (cabbage Alternaria sooty spot) [3]: H (H shows the control value of more than 50%)
- Test B control value class (tomato gray mold) [4]: H (H shows the control value of more than 50%)
- Test G control value class (grape downy mildew) [5]: L (L shows the control value of 50% or less)

SMILES: O=c1c(Br)cn(-c2ccccc2Cl)c(-c2c(F)cccc2F)c1Cl [Compound 54]
- Test E control value class (wheat brown rust) [1]: H (H shows the control value of more than 50%)
- Test D control value class (barley powdery mildew) [2]: H (H shows the control value of more than 50%)
- Test C control value class (cabbage Alternaria sooty spot) [3]: H (H shows the control value of more than 50%)
- Test B control value class (tomato gray mold) [4]: H (H shows the control value of more than 50%)
- Test G control value class (grape downy mildew) [5]: H (H shows the control value of more than 50%)

SMILES: COc1cc(F)c(-c2c(Cl)c(=O)c(Cl)cn2Cc2ccccc2)c(F)c1 [Compound 58]
- Test E control value class (wheat brown rust) [1]: H (H shows the control value of more than 50%)
- Test D control value class (barley powdery mildew) [2]: H (H shows the control value of more than 50%)
- Test C control value class (cabbage Alternaria sooty spot) [3]: H (H shows the control value of more than 50%)
- Test B control value class (tomato gray mold) [4]: H (H shows the control value of more than 50%)
- Test G control value class (grape downy mildew) [5]: H (H shows the control value of more than 50%)

SMILES: COc1cc(F)c(-c2c(Br)c(=O)c(Cl)cn2Cc2ccccc2)c(F)c1 [Compound 59]
- Test E control value class (wheat brown rust) [1]: H (H shows the control value of more than 50%)
- Test D control value class (barley powdery mildew) [2]: L (L shows the control value of 50% or less)
- Test C control value class (cabbage Alternaria sooty spot) [3]: H (H shows the control value of more than 50%)
- Test B control value class (tomato gray mold) [4]: H (H shows the control value of more than 50%)
- Test G control value class (grape downy mildew) [5]: H (H shows the control value of more than 50%)

SMILES: O=c1c(Cl)cn(-c2ccccc2Cl)c(-c2c(F)cccc2F)c1Br [Compound 60]
- Test E control value class (wheat brown rust) [1]: H (H shows the control value of more than 50%)
- Test D control value class (barley powdery mildew) [2]: L (L shows the control value of 50% or less)
- Test C control value class (cabbage Alternaria sooty spot) [3]: H (H shows the control value of more than 50%)
- Test B control value class (tomato gray mold) [4]: H (H shows the control value of more than 50%)
- Test G control value class (grape downy mildew) [5]: L (L shows the control value of 50% or less)

SMILES: O=c1c(Cl)cn(-c2ccccc2Cl)c(-c2c(F)cccc2F)c1Cl [Compound 61]
- Test E control value class (wheat brown rust) [1]: H (H shows the control value of more than 50%)
- Test D control value class (barley powdery mildew) [2]: H (H shows the control value of more than 50%)
- Test C control value class (cabbage Alternaria sooty spot) [3]: H (H shows the control value of more than 50%)
- Test B control value class (tomato gray mold) [4]: H (H shows the control value of more than 50%)
- Test G control value class (grape downy mildew) [5]: L (L shows the control value of 50% or less)
